Reference: publication PMC4336329 (PLoS ONE, 2015)
The whole screen tested about 310,000 compounds, of which about 2,200 (0.71%) showed an effect of 50% or more. Effects have a minus sign here. The list shows a part of the results.

Target: human ether-à-go-go-related gene (hERG) potassium channel (human, UniProt Q12809)
Test: primary screen, population patch clamp on CHO cells stably expressing hERG

Chain of human ether-à-go-go-related gene (hERG) potassium channel (Q12809 whole entry, looked up): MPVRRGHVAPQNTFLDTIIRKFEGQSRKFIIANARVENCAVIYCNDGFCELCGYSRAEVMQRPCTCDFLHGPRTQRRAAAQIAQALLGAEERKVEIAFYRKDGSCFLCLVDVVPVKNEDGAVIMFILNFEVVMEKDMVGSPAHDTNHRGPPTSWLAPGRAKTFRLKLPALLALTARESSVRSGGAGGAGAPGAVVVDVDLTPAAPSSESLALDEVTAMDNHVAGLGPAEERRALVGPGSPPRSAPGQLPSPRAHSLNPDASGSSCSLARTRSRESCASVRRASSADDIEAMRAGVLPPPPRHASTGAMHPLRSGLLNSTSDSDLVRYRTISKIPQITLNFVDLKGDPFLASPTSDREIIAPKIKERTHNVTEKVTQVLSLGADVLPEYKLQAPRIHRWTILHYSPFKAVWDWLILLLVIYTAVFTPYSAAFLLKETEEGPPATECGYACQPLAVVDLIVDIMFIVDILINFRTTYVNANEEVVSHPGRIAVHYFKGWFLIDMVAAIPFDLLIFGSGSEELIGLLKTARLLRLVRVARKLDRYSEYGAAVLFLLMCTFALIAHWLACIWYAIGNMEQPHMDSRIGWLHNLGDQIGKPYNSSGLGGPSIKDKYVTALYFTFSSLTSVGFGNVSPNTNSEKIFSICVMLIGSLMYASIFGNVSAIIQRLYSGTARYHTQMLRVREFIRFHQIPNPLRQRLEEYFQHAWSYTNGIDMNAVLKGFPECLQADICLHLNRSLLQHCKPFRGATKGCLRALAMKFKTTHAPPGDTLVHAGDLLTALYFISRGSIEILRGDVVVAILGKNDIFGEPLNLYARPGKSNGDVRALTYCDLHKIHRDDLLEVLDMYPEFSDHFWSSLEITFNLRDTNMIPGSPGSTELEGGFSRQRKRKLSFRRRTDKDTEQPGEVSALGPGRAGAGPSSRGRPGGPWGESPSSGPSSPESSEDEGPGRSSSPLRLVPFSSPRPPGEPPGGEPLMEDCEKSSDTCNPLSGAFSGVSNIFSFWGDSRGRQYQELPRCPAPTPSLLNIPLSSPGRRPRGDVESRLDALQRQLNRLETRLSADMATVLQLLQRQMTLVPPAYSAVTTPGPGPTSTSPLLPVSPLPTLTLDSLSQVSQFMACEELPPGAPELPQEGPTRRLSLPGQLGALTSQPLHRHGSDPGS

| Structure (SMILES) | hERG current change (%, negative = inhibition) at 1uM |
| --- | --- |
| CCN(CC)S(=O)(=O)c1ccc(Oc2ccccc2OC)cc1 | 9.64% |
| CN(C(=O)COc1nnc(-c2cccs2)c(-c2cccs2)n1)c1ccccc1 | 5.68% |
| CCOC(=O)CC(NC(=O)c1cc2cc(Cl)cc(Cl)c2oc1=O)c1cccc([N+](=O)[O-])c1 (stereo not drawn) | -3.81% |
| O=C(Cn1cnc2c(nnn2-c2ccc(F)cc2)c1=O)NCC1CCCO1 (stereo not drawn) | 19.1% |
| CC(O)Cn1c(N2CCCC2)nc2c1c(=O)[nH]c(=O)n2C (stereo not drawn) | 13.4% |
| CCOc1ccc(Nc2ccc(C(=O)O)cc2[N+](=O)[O-])cc1 | 15% |
| Cc1ccc(C(=O)NCCNC(=O)Cc2ccccc2)cn1 | 12.9% |
| O=c1c([N+](=O)[O-])c(NCCN2CCCCCC2)c2ccccc2n1-c1ccccc1 | 8.01% |
| CCCC(=O)Nc1nn(C)c2nc3c(C)cccc3cc12 | 2.08% |
| c1ccc(-n2ncc3cccnc32)cc1 | 8.57% |
| Cc1ccc(-c2nc(CN(C)C)cc(CN(C)C)c2O)cc1.Cl | 2.81% |
| CC(C)CNS(=O)(=O)c1ccccc1C(=O)N1CCCCC1 | 2.36% |
| C=CC[N+]1(C)CC[C@]23c4c5ccc(O)c4O[C@H]2C(=O)CC[C@@]3(O)[C@H]1C5.[I-] (stereo partly drawn) | 15.1% |
| CCn1c(=O)c(C(=O)NNC(=O)c2ccccc2F)c(O)c2ccccc21 | 10.7% |
| CC1(C)CC(=O)C2=C(C1)OC(=O)C2(NC(=O)c1cccs1)C(F)(F)F (stereo not drawn) | 7.69% |
| O=C(COc1ccc([N+](=O)[O-])cc1)Nc1ccc2c(c1)CCC2 | 1.22% |
| c1ccc(CCNc2ccc3nncn3n2)cc1 | 9.46% |
| COc1cc(SC)ccc1C(=O)NCCOc1ccc(C)c(C)c1 | 4.17% |
| CC1(C)CC(=O)C(C2C3=C(CC(C)(C)CC3=O)OC3=C2C(=O)CC(C)(C)C3)=C(O)C1 | 11.6% |
| COc1cccc(C(=O)Nc2cccc(NC(=O)c3cccs3)c2)c1 | 7.99% |
| O=C(COc1ccccc1F)Nc1c2c(nn1-c1ccccc1)CS(=O)(=O)C2 | -5.15% |
| Cc1ccc(CNS(=O)(=O)NCc2cccs2)cc1 | 8.05% |
| CC(C)NC(=O)c1ccccc1NC(=O)c1ccccc1N(C)S(C)(=O)=O | 13.6% |

| Structure (SMILES) | hERG current change (%, negative = inhibition) at 1uM |
| --- | --- |
| CCCCc1ccc(NC(=O)C(C)CC)cc1 (stereo not drawn) | -12.5% |
| O=C(CCCn1nnnc1CN1CCOCC1)N1CCC(c2ccccc2Cl)C1 (stereo not drawn) | 8.33% |
| CC1Nc2ncnc(N3CCN(c4ccccc4)CC3)c2N(Cc2ccc(Br)cc2)C1=O.O=C(O)C(F)(F)F (stereo not drawn) | 6.85% |
| CCn1c(C)c2c(C)nnc(C)c2c1C | 6.86% |
| CCCS(=O)(=O)c1nc(S(=O)(=O)c2ccc(C)cc2)c(N2CCN(CCO)CC2)s1 | 4.23% |
| CC(=O)c1c(C)[nH]c(C(=O)COC(=O)c2ccc(Cl)nc2)c1C | 14.1% |
| CCCCn1c(O)c(C(CC)=NCc2ccc(F)cc2)c(=O)[nH]c1=O | 16.9% |
| CN(C)c1ccc(C2/C(=C(/O)c3ccc(Br)cc3)C(=O)C(=O)N2C)cc1 (stereo not drawn) | -1.38% |
| Cc1ccc(N2CCN(S(=O)(=O)c3c(C)noc3C)CC2C)cc1 (stereo not drawn) | 3.24% |
| COc1cccc(CN2CCN(C(=O)c3cc(-c4ccccn4)nc4ccc(Cl)cc34)CC2)c1 | 13.3% |
| O=C(O/N=C1\CCS(=O)(=O)c2sccc21)c1ccc(F)cc1 | 12.3% |
| COc1ccc(N2C(=S)N(C(=O)c3ccccc3)C(=Nc3ccccc3)C2=Nc2ccccc2)cc1 | -4.84% |
| Cc1ccc2nc(-c3ccccc3O)c(Nc3ccc4c(c3)OCCO4)n2c1 | 11.5% |
| CC(=O)N1CCc2cc(S(=O)(=O)NCCN3CCC(C)CC3)ccc21 | 11.4% |
| CCOC(=O)CNC(=O)CSc1nc2cccnc2n1C | -1.34% |
| O=C(CCCN1C(=O)/C(=C/c2ccc3c(c2)OCO3)SC1=S)Nc1ccc(C(=O)O)cc1 | 6.95% |
| O=C(NNC(=S)NC(=O)c1ccccc1[N+](=O)[O-])c1ccccc1[N+](=O)[O-] | 15.8% |
| CC(=O)Nc1ccc(NC(=O)CCCc2c[nH]c3ccccc23)cc1 | 11% |
| CCC(=O)Nc1nnc(CCc2ccccc2)s1 | 15.6% |
| C=CCn1c(COc2ccccc2-c2ccccc2)nnc1SCC(=O)NC(=O)NCc1ccco1 | 21.1% |
| CCOC(=O)N1CCN(C(=O)C2CCN(S(=O)(=O)c3ccc(OCC)cc3)CC2)CC1 | 2.62% |
| CC1=NCCN1S(=O)(=O)c1cccc([N+](=O)[O-])c1 | 16.5% |
